Measurements published in US11147272B2, “Pyridone compounds and agricultural and horticultural fungicides comprising the same as active ingredients” (MITSUI CHEMICALS AGRO, INC., priority 2017, dated 2021).

Tested on: Colletotrichum orbiculare
Assay: Test Example H: Anthracnose on cucumber
Settings: 250 ppm drug solution sprayed (2.5 ml/pot), cucumber Sagami Hanjiro, 6 to 10 days after inoculation

SMILES | Test H control value
CCn1c(-c2c(F)cccc2F)c(C(C)(OC)C(C)C)cc(Br)c1=O (centres unmarked) [compound 523] | H (more than 50% control value)
CCn1c(-c2c(F)cccc2F)c(C(C)(O)C(C)C)cc(Br)c1=O (centres unmarked) [compound 522] | H (more than 50% control value)
